The source gives no read counts; variants with many changes may rest on few reads.
B1: LINE1-mini (parent)
chain: GGCAGAGCUCAACACAGCGUGGCAAAGUGGCUGUGGCUAGACUGCC

Variants of: B1
Assay: self-cleavage, relative activity (ratio to wild type); higher = more cleavage; in vitro, sequencing; the parent is a self-cleaving ribozyme

Variant | self-cleavage
C10A A16G C18A U28A C31G G35C | 0.02
A16C A24C U38A | 0.03
G7U A12U A26C | 0.03
C3U A4U C13A U38C G44C | 0.09
A24U G30U G36U C46A | 0.07
C15U U20C U28G | 0.9
G1A C3U U9G | 0.92
A25U A39G C42A | 0.04
G7U A14U C15U | 0.26
G19A G29U G40U C42U | 0.1
C8U C10A C15G | 0.05
A4C A16U C18U G22A A24U G29A | 0.02
C10A C31A A39G | 0.01
A12G A24C C45U | 0.01
C15U G29A G36C | 0.04
C10A C15A A25C C42A | 0.01
G1C G2A C13A G33C G44C | 0.02
G2U C8G A41U | 0.03
G2U C10G C18U A24G G29C C45G C46G | 0
A25U A26G A39U | 0.09
G5C C13G A14U C42U | 0.04

Variant | self-cleavage
C3G G19A G35U | 0.14
C8U G19U G22A A24G A26U G27A G40U | 0.05
U9G C18G U20C A25C G27A | 0.16
C8U C10G U32C U38C A41U | 0.01
U9G C10A G27U G33U | 0.11
C13U C18G U20C C45A | 0.08
C8G C42U C45G | 0.01
G21C G22U G30U A39G | 0.02
A4C G5C U38A | 0.09
G7U G29U C31A G36U | 0.02
C3U C8A G19C C46G | 0.07
G17U C18G G29A G35U | 0.05
G1U C10U G44U | 0.04
C15A U34A C37A | 0.03
U20G A26C A41G | 0.09
A12G C13G G36A | 0
A11C G36U G44C | 0.02
C10U G27C U28C | 0.19
C3G U9C A41C | 0.03
G2C C8G C18U C46A | 0.02
G7C C31A U34A | 0.02

Variant | self-cleavage
A6C G33U U34A G40U | 0.02
C13U C18A G22A | 0.03
U9A C18G G36U C37G | 0.07
U28C G33U C46A | 0.13
G1C A6U C8G G29U | 0
A11G U20G C31G C37G U38C A41G | 0.04
U28G G30C G44U | 0.04
A25G G35C G40U | 0.02
A11C A24C U32A | 0.01
G7C G35U U43A | 0.02
A11C C31A G33A U34G A39G U43A | 0.01
G2C G19A C45A | 0.03
G30C C31U G40U | 0.02
A24C G27C C45A | 0.12
C15A U38G G44C | 0.01
A4G C13A G33C | 0.09
C10U G21C U34A C45G C46U | 0.04
U9A C13U C31U | 0.03
G29U C31A C42U G44C | 0.04
C15G U28G C31U G35A A39G | 0.02
C8G C15A A16C U28G G29U G35A G36C | 0.02

Variant | self-cleavage
C10U C13G G30U | 0.05
G1U C10A G29C U32A | 0.03
G2A G27C G33C C45G | 0.05
A4G U9C A24C A26C G35C C37U | 0
C3U U9A G44A | 0.05
C3A A39C A41G | 0.6
G1U G2C G22A G36U | 0.03
A6C G17C U32A | 0.03
A6G C15A G27A | 0.22
G5A A11U G22A G44C | 0.01
C15G G19A G21U G22U | 0.06
C13U C18G A26G C37U | 0.04
G1U C10G C13G C15A C23U A26U C37G C42A | 0.02
G36U G44U C45G | 0.04
G30U C31A G33U | 0.12
A4C U9A C18A C37U | 1.14
G22C C31U U34G G35C | 0.04
C10U A12G A24U G30A U34C | 0.01
G2C A6U A24U U28C A39U | 0.01
C15U C18A G35C C45G | 0.01
C13U A39U G40U | 0.04

From the RNAGym collection of RNA variant scans (doi:10.7554/elife.90254)
